# Measured values: PubChem BioAssay AID463173 (ICCB-Longwood Screening Facility, Harvard Medical School, 2010)
# The whole screen tested about 52,000 compounds, of which about 1,700 (3.3%) were called active. Rule as the data show it: active = survival mostly below about 52% (no sharp cut-off); inactive = mostly above about 56%. Some of the results follow.
# System: Wild type
# Assay: growth inhibition of S. aureus wild type versus tarO mutant, primary screen, teichoic acid synthesis inhibitors, RN4220, OD600 (AID 463173)
# Details: S. aureus RN4220 wild type/DeltatarO growth, OD600, 18 h, stronger effect = lower value, screened at 18.75 µg/mL (by protocol)
row,Compound,survival
1,O=C(Nc1ccc(F)cc1F)C1CCN(C(=O)c2cnn(-c3ccccc3)c2-n2cccc2)CC1,inactive: 129%
2,O=C(NCC(c1ccc2c(c1)OCO2)N1CCN(c2ccccc2)CC1)c1ccc(F)c(F)c1 (stereo unspecified),inactive: 68%
3,O=C(O)CNc1ccc2nncn2n1,inactive: 103%
4,O=C(NCc1cccc(Cl)c1)c1cnc(N2CCOCC2)c2ccccc12,inactive: 68%
5,Cn1cccc1-c1cc2n(n1)CCC(=O)N2CCCC(=O)NCc1cccc(Cl)c1,inactive: 87%
6,CCN(CC)C(=O)CSc1nnc2c3ccccc3n(C)c2n1,inactive: 112%
7,CCc1ccc(CNC(=O)Cn2nc(C)c3nn(-c4ccc(Cl)cc4)c(C)c3c2=O)cc1,inactive: 74%
8,CCOc1ccc(NS(=O)(=O)c2c(C)nc3sc(CC)nn3c2=O)cc1,inactive: 76%
9,COCCNC(=O)c1ccc2c(c1)ncn2-c1cc(C)ccc1OC,inactive: 73%
10,Cc1ccc(C)c(NC(=O)c2nc(S(=O)(=O)Cc3ccc(F)cc3)ncc2Cl)c1,inactive: 109%
11,CCCn1c(N2CCN(CC(=O)NCc3cccs3)CC2)nc2ccccc21,inactive: 114%
12,Cc1nnc(NC(=O)CSc2nccn2Cc2ccccc2)s1,inactive: 88%
13,CSCCC(NS(=O)(=O)c1ccc2c(c1)oc(=O)n2C)C(=O)NCc1ccc(Cl)cc1 (stereo unspecified),inactive: 83%
14,COc1ccccc1NC(=O)c1ccc(C)o1,inactive: 104%
15,CCS(=O)(=O)c1ncc(N(Cc2ccccc2)Cc2ccco2)c(C(=O)Nc2ccccc2C)n1,inactive: 89%
16,CCOC(=O)c1cccc(N(C(=O)Cn2nnc3ccccc32)C(C(=O)NCC2CCCO2)c2nc3ccccc3n2C)c1 (stereo unspecified),inactive: 103%
17,CCc1ccccc1S(=O)(=O)Cc1ccc(C(=O)NCCc2ccc(Cl)cc2)o1,inactive: 81%
18,O=C(Nc1cc(-c2cccc(Cl)c2)nn1-c1ccccc1)c1ccccc1F,inactive: 72%
19,O=C(Cc1ccc(Cl)cc1)NCCc1csc2nc(-c3ccccc3F)nn12,inactive: 69%
20,CC(C)CCNc1nc(Nc2ccccc2)c2cnn(C)c2n1,inactive: 71%
21,CCOC(=O)c1ccc(-n2c(CCC(=O)O)ccc2-c2ccccc2)cc1O,inactive: 60%
22,CCC(C)(C)NC(=O)C(NS(=O)(=O)c1cccs1)c1ccccc1 (stereo unspecified),inactive: 82%
23,Cc1cc(F)ccc1Nc1nc2ccc(Cl)cc2n2cnnc12,inactive: 74%

row,Compound,survival
1,COc1ccc(N2CCN(C(=O)C(CC(C)C)NS(=O)(=O)c3ccc4nc(C)sc4c3)CC2)cc1 (stereo unspecified),inactive: 73%
2,CCOC(=O)C1=C(CN2c3ccccc3CC2C)NC(=O)NC1c1ccccc1 (stereo unspecified),inactive: 115%
3,CC(CC(=O)Nc1ccc(F)cc1)S(=O)(=O)c1cc2c3c(c1)CCN3C(=O)CC2 (stereo unspecified),inactive: 83%
4,O=C(Cn1nnc2ccccc2c1=O)NC1CCCCC1,inactive: 105%
5,O=C(NC1CCCCC1)c1ccc2c(c1)N(Cc1cccc(Cl)c1)C(=O)c1ccccc1S2(=O)=O,inactive: 88%
6,Cc1ccc(CNc2cc(C)nc3nc(-c4ccc(C)cc4)nn23)cc1,inactive: 66%
7,COC(=O)c1ccccc1NC(=O)CSc1nc2ccccc2nc1Cc1ccc(F)cc1,inactive: 76%
8,CNc1ccc(-c2nc(-c3ccncc3)no2)cc1[N+](=O)[O-],inactive: 120%
9,c1ccc(Sc2ncnc3c2oc2ccccc23)cc1,inactive: 111%
10,CC1Oc2ccccc2N(CC(=O)c2ccccc2)C1=O (stereo unspecified),inactive: 102%
11,COc1ccc(CNC(=O)CCc2c(C)nc3cc(-c4ccc(OC)cc4OC)nn3c2C)cc1,inactive: 80%
12,Cc1ccccc1-c1nnc(C2CCC(c3ccccc3)CC2)o1 (stereo unspecified),inactive: 112%
13,Fc1ccc(-c2cc(-c3ccc(F)cc3)c3c(n2)-c2cc(F)ccc2OC3)cc1,inactive: 118%
14,Fc1ccc(Nc2nc(-c3cccc(Cl)c3)c3c(n2)-c2ccccc2OC3)c(F)c1,inactive: 109%
15,Cc1cccc(NC(=O)Cn2c(=O)n(CC3CCC(C(=O)NCCc4ccccc4)CC3)c(=O)c3ccccc32)c1 (stereo unspecified),inactive: 64%
16,CCOc1ccc2nc(N3CCCC(C(=O)Nc4ccccc4CC)C3)sc2c1 (stereo unspecified),inactive: 81%
17,CCc1ccc(NC(=O)CSc2nc(-c3ccc(C)cc3)nc3c2Cc2c(CO)cnc(C)c2O3)cc1,inactive: 115%
18,CCOC(=O)c1c(NC(=O)c2cc(-c3cccc(Cl)c3)on2)sc(C)c1C,inactive: 87%
19,CCc1ccc(-c2nc3cc(NC(=O)c4ccc(C)c(C)c4)ccc3o2)cc1,inactive: 137%
20,COc1ccc(S(=O)(=O)n2nc(-c3ccco3)nc2NCc2ccc(C(C)C)cc2)cc1,inactive: 97%
21,CCOc1ccc(NC(=O)c2nc(S(=O)(=O)Cc3ccccc3F)ncc2Cl)cc1,inactive: 44%
22,Cc1c(NC(=O)c2cccs2)cccc1-c1nc2cc(Cl)ccc2o1,inactive: 60%
23,CCOc1ccc(C(=O)Nc2ccc(OCc3cc(=O)n4cccc(C)c4n3)cc2)cc1,active: 14%

row,Compound,survival
1,O=C(NCCCN1CCN(c2ccccc2F)CC1)c1ccc2nc(CCc3ccccc3)oc2c1,inactive: 79%
2,COc1cccc(NC(=O)Cn2c(=O)n(Cc3ccc(F)cc3)c(=O)c3sc4ccccc4c32)c1,inactive: 77%
3,COc1ccc(S(=O)(=O)NCc2cccn2Cc2cc(C)ccc2C)cc1OC,inactive: 82%
4,CCc1nnc2c3ccccc3nc(Nc3cc(C)cc(C)c3)n12,inactive: 37%
5,CC(=O)NCCNC(=O)CCCc1nnc2n(CC(C)C)c(=O)c3sccc3n12,inactive: 100%
6,COc1ccc(-c2cc(-c3nc(-c4cc(OC)c(OC)c(OC)c4)no3)[nH]n2)c(OC)c1,inactive: 73%
7,CCOc1ccc(CCNC(=O)c2c(C)oc3ncn(CC(C)C)c(=O)c23)cc1OCC,inactive: 77%
8,CC(=O)N1CCc2c(sc3c2c(=O)n(-c2ccccc2)c(=O)n3CC(=O)Nc2cc(C)cc(C)c2)C1,inactive: 54%
9,Cc1ccc(-n2nc(C(=O)N3CCN(c4ccccc4F)CC3)c(=O)n(C)c2=O)cc1,inactive: 92%
10,CCCCCc1ccc(-c2ccc(Br)cc2)nc1,active: -3%
11,O=C(NCc1ccccc1F)C(=O)NCC(c1ccc2c(c1)OCO2)N1CCOCC1 (stereo unspecified),inactive: 71%
12,CC1C(C#N)=C(N)OC2=C1C(=O)CCC2 (stereo unspecified),inactive: 104%
13,Cc1cc(Br)ccc1NC(=O)CSc1c2c(nc3ccccc13)CCC2,inactive: 75%
14,CCc1ccc(NC(=O)CSc2nc(C)c(C(=O)Nc3ccccc3)c(-c3ccc(OC)c(OC)c3)c2C#N)cc1,inactive: 85%
15,CCCC1C2CN(Cc3ccccc3)CC=C2C(C#N)=C(N)C1(C#N)C#N (stereo unspecified),inactive: 109%
16,O=C(CCc1ccccc1)Nc1ccccc1,inactive: 105%
17,CCOc1ccc(CNC(=O)CCc2c(C)nn(-c3ccc(N4CCCCC4)nn3)c2C)cc1,inactive: 66%
18,CSc1ccc(CCNC(=O)c2cc(C)nc3c2c(C)nn3-c2cccc(F)c2)cc1,inactive: 75%
19,CC(C)(C)C(=O)CSc1nc2ccsc2c(=O)n1Cc1ccccc1Cl,inactive: 73%
20,COc1cccc(CSc2nc3n(n2)C(c2ccc(C(=O)O)cc2)C(C(=O)Nc2ccccc2)=C(C)N3)c1 (stereo unspecified),inactive: 80%
21,O=C(OCc1cc(=O)n2nc(-c3cccs3)sc2n1)c1ccccc1Cl,inactive: 75%
22,Cc1nc2ccccc2c(=O)n1CC(=O)N(C1CCCCC1)C1CCCCC1,inactive: 114%
23,CCOc1ccccc1NC(=O)CSc1nc2c(oc3ccccc32)c(=O)n1-c1ccc(F)cc1,inactive: 92%

row,Compound,survival
1,O=S1(=O)CCC(NNC(=S)Nc2ccccc2)C1 (stereo unspecified),inactive: 95%
2,COc1ccc(NC(=O)c2cc3cc(C)ccc3[nH]2)cc1,inactive: 117%
3,COc1ccccc1N1CCN(c2ccc(=O)n(CC(=O)NCc3ccc(F)cc3)n2)CC1,inactive: 135%
4,CC1CC(c2ccccc2)n2nc(N)nc2N1 (stereo unspecified),inactive: 96%
5,CSc1ccccc1-c1nnc(NC(=O)c2ccc3c(c2)OCCO3)o1,inactive: 123%
6,O=C(NC1CCCCC1)N1CCc2ccccc2C1,inactive: 116%
7,Cc1c(C(=O)N2CCCCCC2)c(S(=O)(=O)NCc2ccccc2)c(C)n1C,inactive: 68%
8,O=C(CSc1nc(=O)n(CCN2CCOCC2)c2c1CCC2)Nc1ccc(Cl)c(Cl)c1,inactive: 83%
9,O=C(Nc1ccc(F)c(Cl)c1)Nc1c[nH]c(=O)[nH]c1=O,inactive: 80%
10,COCCN(C(=O)c1ccco1)c1nnc(-c2ccc(F)cc2)s1,inactive: 111%
11,CC(=O)Nc1ccccc1-c1nc2ccccc2n(CC(=O)Nc2cccc(C)c2C)c1=O,inactive: 119%
12,O=C(Nc1nccs1)c1ccc(N2C(=O)CCC2=O)cc1,inactive: 111%
13,Cc1ccc2nc(SCc3nc(-c4ccc(Cl)cc4)no3)[nH]c2c1,active: -4%
14,CC(CNC(=O)c1cnn(-c2ccc(F)cc2)c1-n1cccc1)c1ccccc1 (stereo unspecified),inactive: 79%
15,O=C(CN1CCC(n2nnc3cc(C(F)(F)F)ccc32)CC1)N1CCc2ccccc21,inactive: 99%
16,CCOC(=O)c1cc(-c2ccccc2)n(CCC(=O)Nc2ccccc2CC)c1C,inactive: 69%
17,Cc1cc(C)cc(N2C(=O)CSC23C(=O)N(Cc2c(F)cccc2Cl)c2ccccc23)c1 (stereo unspecified),inactive: 138%
18,Cc1cc2c(cc1S(=O)(=O)Nc1cccc(Cl)c1C)n(C)c(=O)c(=O)n2C,inactive: 81%
19,Cc1cccc2nc(-c3ccccn3)c(Nc3ccc(F)cc3)n12,active: 4%
20,Cc1cc(C)c(OCC(=O)O)c(Cl)c1,inactive: 121%
21,COc1ccc(C2CC(=O)N(Cc3ccc(C)cc3)c3c2c(C)nn3-c2nc(C)cc(C)n2)c(OC)c1 (stereo unspecified),inactive: 120%
22,COc1cc(OC)c(OC)cc1CNCc1ccco1,inactive: 120%
